Experimental data: PubChem BioAssay AID488895 (Broad Institute, 2010)
The campaign covered roughly 340,000 compounds. About 120 (0.035%) were called active. This list was built around the results that the source calls inconclusive (neither active nor inactive); the mix of calls is not that of the screen.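 The calls were made as follows: active = mean replicate inhibition at least 50% and at least half of replicates individually reaching 50%; inconclusive = only one of the two criteria met; inactive = neither criterion met.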

Assay: E. coli Tat export inhibitors, primary screen, MC4100, TorA-mCherry reporter, fluorescence, single point (AID 488895);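 also: exported cargo escapes ClpAP degradation while cytoplasmic cargo is degraded and loses fluorescence; 0% = median of neutral control wells and 100% = median of NaSCN control wells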
Details: at 10 µM, hits give high values

Compound	inhibition
NNC(=O)Nc1cccc(C(F)(F)F)c1	inactive: -6.18%
CN(C)C(=O)C[n+]1cccc(/C=N/O)c1	inactive: 0.0705%
O=[N+]([O-])c1ccc(N/N=C/c2ccc[nH]2)cc1	inactive: 0.75%
O=C1c2cccnc2C(=O)N1CNc1ccc(Cl)cc1	inactive: -1.63%
Cc1cc(C)n(CCCNC(=O)COc2ccc([N+](=O)[O-])cc2)n1	inconclusive: 30.1%
Cc1nc2sc(C(c3cccc(F)c3)N3CCCC(C)C3)c(O)n2n1 (stereo unspecified)	inactive: -0.304%
O=[N+]([O-])c1ccc(O)c(C2CCCCC2)c1	inactive: -4.89%
O=C(CCCc1ccccc1)Nc1ccc2c(c1)OCCO2	inconclusive: 28.8%
CC1(C)O[C@@H]2[C@H](O1)[C@@H](COS(=O)(=O)O)O[C@H]2n1ccc(=O)[nH]c1=O	inactive: -1.01%
Cc1csc(N2CCCC2c2nc3cc(C(F)(F)F)ccc3n2CCOCCO)n1 (stereo unspecified)	inconclusive: 24.6%
CN1C(=O)N(C)C2(c3ccccc3)NC(=O)NC12c1ccccc1 (stereo unspecified)	inconclusive: 31.9%
Cc1cc(C)c(NS(=O)(=O)c2ccc3c(c2)NC(=O)CCS3)c(C)c1	inconclusive: 34%
O=C1CCc2ccc(OCCCCN3CCN(c4cccc(Cl)c4Cl)CC3)cc2N1	inactive: 0.738%
O=C(/C=C/c1ccccc1)Nc1cc(S(=O)(=O)N2CCOCC2)ccc1N1CCCC1	inconclusive: 25.2%
CCCc1[nH]nc2c1C(c1ccc(OC(=O)c3ccco3)cc1)C(C#N)=C(N)O2 (stereo unspecified)	inconclusive: 24.3%
Cc1ccc(O)c(C(=O)c2coc(=N)c(C(=O)NC(C)C)c2)c1	inconclusive: 34.6%
CN1CCc2c(sc(NC(=O)c3ccc([N+](=O)[O-])o3)c2C(N)=O)C1	active: 56.4%
COC(=O)c1c(NC(=O)C(=O)NCCCN2CCOCC2)sc2c1CCCC2	inconclusive: 36.5%
N#Cc1ccccc1CSc1ccccn1	inconclusive: 39.3%
O=C(Nc1nnc(C2=COCCO2)o1)c1cccc(Br)c1	inactive: 0.494%
CO[C@H]1/C=C/O[C@@]2(C)Oc3c(C)c(O)c4c(O)c(c(C=NN5CCN(C)CC5)c(O)c4c3C2=O)NC(=O)/C(C)=C\C=C\[C@H](C)[C@H](O)[C@@H](C)[C@@H](O)[C@@H](C)[C@H](OC(C)=O)[C@@H]1C	active: 77.7%
S=C(NN=C(c1ccccc1)c1ccccn1)N(Cc1ccccn1)Cc1ccccn1	inactive: -7.96%

Compound	inhibition
CCC1Nc2ncnc(N3CCOCC3)c2N(Cc2ccc(Cl)cc2)C1=O (stereo unspecified)	inconclusive: 23.8%
O=C1CNC(=O)/C1=C\N1CCN(C(c2ccccc2)c2ccccc2)CC1	inconclusive: 32.1%
CN(CC1CCOCC1)C(=O)c1ccc2nc(Cc3cccc(Cl)c3)oc2c1	inconclusive: 31.2%
Clc1ccc(-c2nnc3c4ccccc4nc(N4CCOCC4)n23)cc1Cl	inconclusive: 39.6%
Cc1ccc(CN(C(=O)c2sc3ccccc3c2Cl)C2CCS(=O)(=O)C2)cc1 (stereo unspecified)	inconclusive: 28.8%
COc1cccc(C2CC(c3ccc(NS(C)(=O)=O)cc3)=NN2C(=O)c2ccccc2)c1OC (stereo unspecified)	inactive: -12.3%
O=C(CN1CCN(c2ccccc2F)CC1)NC(=O)NCc1ccccc1	inconclusive: 29.6%
COc1cccc(CN2CCN(Cc3cc(OC)c(OC)cc3[N+](=O)[O-])CC2)c1	inconclusive: 23.9%
Cc1ccc2nc(-c3ccccn3)c(Nc3ccccc3C)n2c1	inactive: -28.4%
CCn1cc(C(=O)NCCO)c(=O)c2cc(F)c(N3CCN(C)CC3)cc21	active: 81.4%
CC(=O)NC(Cc1cnc[nH]1)C(=O)O (stereo unspecified)	inconclusive: 44.1%
CC(C)N1C(=O)NC2(c3ccccc3)N(C)C(=O)N(C)C12c1ccccc1 (stereo unspecified)	inconclusive: 28.9%
CCN(CC)C(=O)C1=C(C)NC(=O)NC1c1c(F)cccc1Cl (stereo unspecified)	inconclusive: 21.8%
Cc1c(C)c2c(C)nn(-c3ccccc3)c2[nH]c1=O	inconclusive: 30.7%
Cc1noc(C)c1COC(=O)c1cccc(S(=O)(=O)N2CCOCC2)c1	active: 53.3%
CNC(=O)C1CCN(S(=O)(=O)c2c(C)noc2/C=C/c2cccc(OC)c2)CC1	inconclusive: 34%
COc1ccc(NC(=O)COC(=O)c2ccc([N+](=O)[O-])o2)cc1Cl	inactive: -5.73%
Cc1ccc2ccc3cccnc3c2n1	inactive: 8.62%
Cc1ccn(C(=O)c2ccc(NC(=O)C3CC3)cc2)n1	inconclusive: 25.6%
Cc1ccc(/C=C/C(=O)c2ccccc(=O)c2O)c(C)c1	inactive: 1.2%
O=c1c(O)c(-c2ccc(O)c(O)c2)oc2cc(O)cc(O)c12	inactive: 5.61%
Cc1ccccc1OCC(=O)Nc1ccc(S(=O)(=O)Nc2onc(C)c2C)cc1	inconclusive: 21.1%

Compound	inhibition
COc1cccc(-n2c(SCc3ccccn3)nc3c(c2=O)SCC3)c1	inconclusive: 21%
O=C1/C(=C\c2ccc(Cl)c(Cl)c2)CN(C(=O)CCN2CCOCC2)C/C1=C/c1ccc(Cl)c(Cl)c1	inactive: 14.1%
CC(=O)Oc1ccc2c(c1)OC(c1ccccc1)CC21CC(C)(C)NC(=S)N1 (stereo unspecified)	inconclusive: 19.4%
CN(C)c1ccc(O)c2c1CC1CC3[C@@H](N(C)C)C(=O)C(C(N)=O)C(=O)[C@]3(O)C(=O)C1C2=O (stereo partly specified)	active: 145%
CC(C)(C)c1cc(OC(=O)c2ccncc2)ccc1O	inactive: 3.94%
Cn1ncc(Cl)c1C(=O)NCc1ccc(Cl)cc1	inconclusive: 21.3%
Cc1ccccc1N/N=C/c1ccc(C#N)cc1	inconclusive: 30.9%
CCNc1nc(NC(C)(C)C)nc(N(CC)n2cnnc2)n1	inconclusive: 23.6%
Cc1ccc(OCCNS(=O)(=O)c2ccc(N3CCCC3=O)cc2)cc1C	inconclusive: 31%
c1c[nH]c(CN2CCN(Cc3ncc[nH]3)CC2)n1	inactive: -10.2%
CCCCSc1nc2c(c(=O)[nH]c(=O)n2C)n1CCc1ccccc1	inconclusive: 31.5%
COc1ccc(N/N=C/c2c(C(=O)O)ccc3ccccc23)cc1	inactive: -4.69%
Cc1ccc(NS(=O)(=O)c2ccc(NC(=O)[C@@H]3CCCC[C@@H]3C(=O)O)cc2)c(C)c1	inconclusive: 27.9%
O=C(CCSc1nnc(-c2ccco2)o1)N1CCOCC1	inconclusive: 25.6%
C/C=C(/C)C(=O)Nc1cccc(C2=NOC3(C2)C[C@H](C(N)=O)N(C(=O)c2ccc(Cl)cc2)C3)c1 (stereo partly specified)	inconclusive: 36.7%
COc1ccc(/C=N/Nc2nc3ccccc3o2)cc1O	inconclusive: 38.3%
Cc1c(NC2=NC3(CCCCC3)Cc3ccccc32)c(=O)n(-c2ccccc2)n1C	inconclusive: 19.9%
O=C1c2cccc3cccc(c23)C(=O)N1CC1CCN(CC(O)COc2ccc3ccccc3c2)CC1 (stereo unspecified)	inconclusive: 42.2%
CCN1CCN(CCCNc2ncnc3nc[nH]c23)CC1	inconclusive: 28.4%
Cc1ccc(CNC(=O)C2CCCN2C(=O)Nc2ccccc2)cc1 (stereo unspecified)	inconclusive: 14%
CCOC(=O)C1CCCN(c2c(N3CCN(C4CCCCC4)CC3)c(=O)c2=O)C1 (stereo unspecified)	inconclusive: 37.9%
Cc1occc1C(=O)NNC(=O)Nc1ccc(Cl)c(Cl)c1	inactive: 5.26%

Compound	inhibition
C[C@H]1COc2c(N3CCN(C)CC3)c(F)cc3c(=O)c(C(=O)O)cn1c23	active: 148%
C=CCn1c(SCC(=O)NCc2ccc3c(c2)OCO3)nnc1-c1cccnc1	inconclusive: 22.6%
COc1ccc(CCNC(=O)c2cc3c(F)cccc3s2)cc1OC	inactive: -3.87%
NC(=O)c1ncn([C@@H]2O[C@H](CNCc3cccn3-c3ccncc3)[C@@H](O)[C@H]2O)n1	inconclusive: 27.1%
O=C(N/N=C/c1cn(-c2cccs2)nc1-c1ccccc1)c1ccccc1O	inconclusive: 37.2%
Cc1ccc(S(=O)(=O)Nc2cccnc2Oc2ccc(Cl)cc2)cc1	inactive: 1.97%
O=C(CCC1CCCCC1)NCCN1CCOCC1	inconclusive: 23.3%
COCCN(C(=S)Nc1c(C)cc(C)cc1C)C(C)c1cccnc1 (stereo unspecified)	inconclusive: 32.9%
CC1CCN(C(=O)c2[nH]cnc2C(=O)N[C@@H](C)C(=O)OC(C)(C)C)CC1	inconclusive: 25.1%
CS(=O)(=O)N(CC(=O)NC1CCCC1)c1cccc(F)c1	inconclusive: 30.1%
COc1ccc(CCN2C(=O)CC(NNC(=O)c3ccc(F)cc3)C2=O)cc1OC (stereo unspecified)	inconclusive: 20.2%
COc1ccc(C(=O)NC(=S)N2CC(C)OC(C)C2)cc1OC (stereo unspecified)	inconclusive: 24.7%
O=C(N/N=C\C=C\c1ccc([N+](=O)[O-])o1)c1cccs1	inactive: 22.7%
NCC[C@H](O)C(=O)N[C@@H]1C[C@H](N)[C@@H](O[C@H]2O[C@H](CN)[C@@H](O)[C@H](O)[C@H]2O)[C@H](O)[C@H]1O[C@H]1O[C@H](CO)[C@@H](O)[C@H](N)[C@H]1O	active: 126%
COc1ccc(C2SCCN2S(=O)(=O)c2ccccc2)cc1 (stereo unspecified)	inconclusive: 21.9%
CCN(CC)P(=O)(Nc1ccc([N+](=O)[O-])cc1)c1c(C)nn(CCC#N)c1NC(=O)c1ccc(Cl)cc1 (stereo unspecified)	inactive: 6.11%
COc1ccc(-c2oc3ccccc3c(=O)c2OCC(=O)O)cc1	inactive: -2.69%
CC(=O)NC1=NN(C(C)=O)C2(S1)C(=O)N(C(C)C)c1ccc(C)cc12 (stereo unspecified)	inconclusive: 23.6%
COc1ccc(N2C(=O)C3C4C=CC(C4)C3C2=O)nn1 (stereo unspecified)	inconclusive: 32.7%
CN(C)[C@@H]1C(=O)C(C(N)=O)=C(O)[C@@]2(O)C(=O)C3=C(O)c4c(O)ccc(Cl)c4[C@@H](O)[C@H]3C[C@@H]12	active: 151%
